Experimental data reported in the supplement of paper PMC6206098.
± gives the uncertainty stated by the source. Shown are siRNA guide strands that differ only in the seed, positions 2 to 7.

Assays:
HeyA8 = test: cell viability relative to lipid-only control; higher = less toxic; details: concentration: 10 nM; 96 h; Homo sapiens
Method: (§1)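 Arrayed screen of 4096 siRNA duplexes, each carrying one of all possible 6mer seeds at guide-strand positions 2-7 in a fixed neutral 19mer scaffold (constant flanks: U at position 1, then ACAUGUAAACCA, plus a 3' AA overhang). The passenger strand is 2'-O-methylated at positions 1-2 so only the guide strand loads into RISC. Duplexes were reverse-transfected at 10 nM with RNAiMAX in triplicate in 384-well plates; viability was read by CellTiter-Glo ATP content 96 h after transfection. Values are % viability normalised to lipid-only wells (HeyA8, H460, M565) or to siNT1 (3LL).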

M565 = test: as above; details: concentration: 10 nM; 96 h; Mus musculus
Method: as §1

H460 = test: as above; details: concentration: 10 nM; 96 h; Homo sapiens
Method: as §1

3LL = test: cell viability relative to siNT1 control; HeyA8 human ovarian and H460 human lung cancer; M565 mouse liver and 3LL mouse lung cancer; siNT1 is a non-toxic control siRNA; higher = less toxic; details: concentration: 10 nM; 96 h; Mus musculus
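For cell viability relative to lipid-only control in this document: reverse lipid transfection in 384-well plates, in triplicate, of duplexes on a non-toxic 19mer backbone with passenger strand 2′-O-methylated at positions 1 and 2, luminescence viability read-out.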
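For cell viability relative to siNT1 control in this document: Luminescence-based viability of cells reverse transfected in 384-well plates with lipid-complexed siRNAs built on a non-toxic 19mer backbone whose passenger strand carries 2′-O-methyl groups at positions 1 and 2, triplicates.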

Sequence | cell viability (HeyA8) [%] | cell viability (M565) [%] | cell viability (H460) [%] | cell viability (3LL) [%]
UCACGACACAUGUAAACCAAA | 85 ± 6.3 | 59.4 ± 12 | 22 ± 2.7 | 93.9 ± 13
UCACGAGACAUGUAAACCAAA | 70.9 ± 7.4 | 72.8 ± 6.5 | 32.4 ± 5.5 | 94.4 ± 6.6
UCACGAUACAUGUAAACCAAA | 88.5 ± 8.3 | 64.4 ± 6.7 | 36.2 ± 1.4 | 96.4 ± 12
UCACGCAACAUGUAAACCAAA | 87 ± 6 | 76.4 ± 6.4 | 37.7 ± 7.6 | 105 ± 13
UCACGCCACAUGUAAACCAAA | 65.3 ± 3.8 | 29.4 ± 6.3 | 20.2 ± 1.6 | 81.7 ± 21
UCACGCGACAUGUAAACCAAA | 85.9 ± 5.3 | 67.7 ± 9.2 | 23.8 ± 5.9 | 100 ± 12
UCACGCUACAUGUAAACCAAA | 76.4 ± 8.7 | 72.9 ± 12 | 27.2 ± 2.7 | 95.2 ± 13
UCACGGAACAUGUAAACCAAA | 86.7 ± 11 | 62.3 ± 8.6 | 30.5 ± 4.6 | 99.6 ± 12
UCACGGCACAUGUAAACCAAA | 23.8 ± 2.5 | 29.9 ± 6.2 | 20 ± 2 | 47.6 ± 9.2
UCACGGGACAUGUAAACCAAA | 81.9 ± 9.5 | 40.9 ± 7.1 | 69.7 ± 2.5 | 74.1 ± 11
UCACGGUACAUGUAAACCAAA | 59.3 ± 3.1 | 48.2 ± 9.3 | 14.8 ± 1.3 | 55.7 ± 14
UCACGUAACAUGUAAACCAAA | 84.7 ± 2.5 | 69.9 ± 10 | 40.5 ± 11 | 99.4 ± 12
UCACGUCACAUGUAAACCAAA | 76.6 ± 4.9 | 37.6 ± 6.5 | 32.8 ± 4.1 | 88.1 ± 7.9
UCACGUGACAUGUAAACCAAA | 85.5 ± 7.4 | 65.4 ± 8.5 | 50.6 ± 1.5 | 102 ± 15
UCACGUUACAUGUAAACCAAA | 86.7 ± 3.6 | 51.7 ± 3.1 | 28.7 ± 2.3 | 99 ± 9.5
UCACUAAACAUGUAAACCAAA | 88.6 ± 4.5 | 83.4 ± 6.8 | 34.8 ± 2.8 | 98.1 ± 15
UCACUACACAUGUAAACCAAA | 56.7 ± 4 | 62.1 ± 1.8 | 26.3 ± 3 | 92.7 ± 9.3
UCACUAGACAUGUAAACCAAA | 77.5 ± 5.9 | 69.5 ± 7.6 | 32.5 ± 10 | 92.1 ± 17
UCACUAUACAUGUAAACCAAA | 72.4 ± 2.1 | 75.9 ± 6.8 | 27.2 ± 2.3 | 92.9 ± 19
UCACUCAACAUGUAAACCAAA | 83.4 ± 4.6 | 69.8 ± 9.7 | 45.6 ± 13 | 94.5 ± 10
UCACUCCACAUGUAAACCAAA | 27 ± 4.6 | 41.5 ± 2.3 | 30 ± 6.8 | 43.4 ± 2.2
UCACUCGACAUGUAAACCAAA | 91.3 ± 10 | 65.1 ± 4.3 | 35 ± 6.5 | 79.5 ± 19
UCACUCUACAUGUAAACCAAA | 75.5 ± 9.2 | 49.9 ± 5.9 | 24.1 ± 1 | 56.8 ± 13
UCACUGAACAUGUAAACCAAA | 85.2 ± 12 | 62.6 ± 16 | 42 ± 6.2 | 86.9 ± 12
UCACUGCACAUGUAAACCAAA | 17 ± 2.2 | 28.1 ± 3.7 | 20.1 ± 3.3 | 33.2 ± 7.2
UCACUGGACAUGUAAACCAAA | 43.1 ± 4.2 | 32.2 ± 5 | 29.8 ± 5.6 | 66.7 ± 16
UCACUGUACAUGUAAACCAAA | 43.6 ± 3.5 | 26.7 ± 2.9 | 37.1 ± 3.6 | 73.4 ± 12
UCACUUAACAUGUAAACCAAA | 91.5 ± 12 | 74.7 ± 7.2 | 54.7 ± 8.6 | 104 ± 12
